Drawing on paper PMC6212790, this text covers binding signal for 109 sequences.

The list shows a part of the results. At the low end of the ranking the order means little.

For the test, the target named is T1, GST-Rok (full length) (UniProt O34857).
T1 sequence: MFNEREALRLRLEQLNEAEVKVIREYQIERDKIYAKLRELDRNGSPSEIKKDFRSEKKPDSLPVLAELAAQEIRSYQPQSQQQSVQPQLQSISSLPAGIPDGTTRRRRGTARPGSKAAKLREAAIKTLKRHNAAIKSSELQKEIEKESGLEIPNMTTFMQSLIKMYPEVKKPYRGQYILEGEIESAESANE
Description: protein binding microarray.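 Note: rank score from −0.5 (least bound) to 0.5 (best bound).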 The following applies: Rok is a gene silencer of Bacillus subtilis; high values mean tight binding; most listed sequences are background and not binding sites; double strand, one strand shown.
For the sequence GAAAGCTC, the binding signal is -0.0929 E-score.
Under CTGTCGGC stands -0.173 E-score; under AGAGGACT, -0.176 E-score; under GCTAGTCC, 0.0874 E-score.
AAAACATT: the binding signal worked out at 0.0682 E-score.
In the case of AAATTTAA it was 0.162 E-score.
Sequence AAGGGTTA registered a binding signal of -0.101 E-score.
Consider TAAGGATA, for which the binding signal came out at 0.0747 E-score.
In turn, AGCGTGTA yielded a binding signal of 0.184 E-score.
With GCTCGCGA, the binding signal was -0.155 E-score.
Sequence GATTCAAA registered a binding signal of -0.0146 E-score.
AGCACGGC displayed a binding signal of -0.287 E-score.
Under CTGCACGA stands -0.0737 E-score; under GTTTTGTA, 0.188 E-score.
As for TACTTTCA, the binding signal came to 0.329 E-score.
Under AGGTTGAG stands 0.0244 E-score; under AGCGGCTG, -0.194 E-score.
As for CCTCTGCC, the binding signal is -0.184 E-score.
Sequence AGTGTCGC showed a binding signal of -0.013 E-score.
In the case of GATAAGAA it was -0.0724 E-score.
In turn, AATATAAA yielded a binding signal of 0.266 E-score.
With CAAACACA, the binding signal was 0.0719 E-score.
TAAGCTCA displayed a binding signal of -0.117 E-score.
In turn, CTAAACTC came in with a binding signal of 0.235 E-score.
Turning to CACCCAGA, the binding signal is -0.257 E-score.
Consider AAAGAGCT, for which the binding signal is -0.123 E-score.
The sequence CGAGATAC came in with a binding signal of 0.175 E-score.
In the case of CGTCACCA it was -0.222 E-score; in that of GCGCCGAC, -0.252 E-score; in that of CGGCTCGC, -0.24 E-score.
In the case of AGAATTGG it was 0.15 E-score.
The sequence GCATTGGA displayed a binding signal of -0.178 E-score.
With ACATCCAC, the binding signal is 0.145 E-score.
As to AATGGACA, the binding signal amounted to 0.012 E-score.
The sequence CGTCTAAC had a binding signal of -0.0989 E-score.
Take ACGCTTCA: the binding signal was -0.198 E-score.
As for GCGGTACA, the binding signal was 0.0494 E-score.
In the case of CATTGGAA it was -0.00919 E-score; in that of AATCGAAC, 0.0924 E-score.
CGGGTTTA showed a binding signal of -0.0551 E-score.
Consider AAAGCGAG, for which the binding signal was -0.217 E-score.
CACAGTCC: the binding signal was -0.304 E-score.
As for AACTAGTA, the binding signal was found to be 0.471 E-score.
In the case of AGGCGGGC it was -0.301 E-score; in that of CAAACCCA, 0.0236 E-score; in that of ACACTTCC, 0.116 E-score.
In the case of ACCCTACT it was 0.149 E-score; in that of AAAACGTG, 0.0424 E-score; in that of GCAGAAAA, 0.0261 E-score.
Under AGACAAGA stands 0.0696 E-score.
Regarding AGCCGGCG, the binding signal is -0.362 E-score.
The sequence GCGTTCTA returned a binding signal of 0.148 E-score.
In the case of ATCGCCTG it was -0.102 E-score.
Consider TCCCAACA, for which the binding signal worked out at 0.0903 E-score.
In the case of CACATTCC, the binding signal is -0.115 E-score.
Under TGGACCAA stands -0.322 E-score.
In the case of CTCTTCCC it was -0.161 E-score; in that of CACTTCTG, 0.125 E-score; in that of GATGTGAA, 0.125 E-score.
In the case of CCATTGTC it was -0.0553 E-score; in that of GACCGCGA, -0.313 E-score.
In the case of TCAGGAGA, the binding signal is -0.112 E-score.
As to ATACCCCA, the binding signal was -0.253 E-score.
In turn, CCTATTAC displayed a binding signal of 0.285 E-score.
TAGAAAGA displayed a binding signal of 0.222 E-score.
The sequence CACCGCGA registered a binding signal of -0.00762 E-score.
Sequence GCTCTTGA came in with a binding signal of -0.244 E-score.
In the case of CTCTAGAG, the binding signal is -0.0355 E-score.
On to CCACGGCC, for which the binding signal was -0.29 E-score.
In the case of ACAATGAG it was 0.0652 E-score; in that of GGATGACA, 0.0232 E-score.
In the case of ACTCCTCA it was -0.164 E-score.
As for CCTCGGTC, the binding signal is -0.411 E-score.
The sequence GGAGTTTA returned a binding signal of 0.0513 E-score.
CTCCATGA returned a binding signal of -0.125 E-score.
The sequence ACATCGAA displayed a binding signal of 0.0366 E-score.
On to AGCTAAAC, for which the binding signal is 0.224 E-score.
The sequence CTGATTGC displayed a binding signal of 0.137 E-score.
Sequence ACTGCATC came in with a binding signal of 0.0257 E-score.
In turn, ATGTTGCA came in with a binding signal of -0.0338 E-score.
TTTCGAAA had a binding signal of 0.183 E-score.
The sequence CAGAGTAC showed a binding signal of -0.15 E-score.
Take TAGACCAA: the binding signal is -0.209 E-score.
ACTGATTG registered a binding signal of 0.228 E-score.
CACCGGCA gave a binding signal of -0.185 E-score.
Sequence ACGGTTTC had a binding signal of -0.0509 E-score.
For ACTTTCTC, the binding signal came to 0.0817 E-score.
CCATGGGG gave a binding signal of -0.359 E-score.
The sequence CCAAGGTC yielded a binding signal of -0.183 E-score.
Under CAGCTTAC stands -0.133 E-score; under CTGAATGC, -0.201 E-score; under GCTACGAC, 0.026 E-score.
In turn, CGGCTACC yielded a binding signal of -0.119 E-score.
CCGGAAGA returned a binding signal of -0.345 E-score.
On to GGACGGAA, for which the binding signal is -0.131 E-score.
In the case of AATGCCGG it was -0.0976 E-score; in that of GACAGCAA, -0.16 E-score; in that of ATACTACG, 0.339 E-score.
In the case of CGCGTCCA, the binding signal is -0.16 E-score.
In turn, CCGAAGGC yielded a binding signal of -0.23 E-score.
Regarding GACGGGTA, the binding signal was -0.0749 E-score.
With CCCGTTTC, the binding signal is -0.0198 E-score.
As to CGCCACCC, the binding signal is -0.19 E-score.
CTCTAGGA registered a binding signal of -0.0682 E-score.
ATTGCAAC returned a binding signal of 0.178 E-score.
In the case of AGACGAAA it was 0.169 E-score; in that of CGTTTCGA, 0.0684 E-score; in that of AGATATTC, 0.187 E-score.
In the case of AAGAACCT it was 0.0515 E-score.
